US7271245B2, “Methods and compositions for inhibition of metastasis” (The Scripps Research Institute, priority 2004, dated 2007)

Assays:
[1] = test system: BMS human breast cancer cells; assay: Experimental metastasis in vivo (lung colonization); design: species or system mouse
Description: FIGS. 5A, 5B, 5C. ScFvs Bc-12 and Bc-15 prevent hematogenous breast cancer metastasis. (A) Left: Lungs of female SCID mice 32 days after i.v. injection with 1×10^5 BMS human breast cancer cells. The mice were treated with 50 μg Bc-12 or Bc-15 in 100 μl PBS (i.v.) on days 1, 2, 3 and 4. Controls received PBS only. Right: Numbers of lung surface metastases for each animal, horizontal lines indicate the median number of metastases per group. […] (B) Left: Histological sections of the above mouse lungs, stained with hematoxylin/eosin. Metastases were counted in six sets of three consecutive sections separated by 140 μm for each lung. Right: Number of metastases counted in sections of individual lungs, horizontal lines indicate median number of metastases per animal group. […] (C) Effect of Bc-15 treatment on established breast cancer metastasis in the lungs. Female SCID mice were injected i.v. with 5×10^5 DsRed2-tagged MDA-MB 435 breast cancer cells expressing constitutively activated integrin αvβ3D723R. Mice were treated on day 7, 9, 11 and 14, 16, 18 by i.v. injections of scFv Bc-15 or its RGE mutant, Mut-15 (40 μg/dose). Metastatic foci were enumerated by fluorescence microscopy on day 19. Left: Images of typical tumor foci within the lung tissue in Mut-15 (top) or Bc-15 treated mice (bottom) (bar: 50 μm). Right: Number of metastatic foci within the lung tissue of each animal, horizontal line: median number of metastases per group.
Experimental metastasis in vivo. 1×10^5 BMS human metastatic breast cancer cells were injected into the lateral tail veins of 9 week old female C.B17/lcrTac-Prkdc scid mice (Taconic Farms) (n=8 to 10) together with a 50 μg bolus dose of scFv. I.v. Injections of 50 μg scFv bolus doses were repeated on days 2, 3 and 4 of the experiment. Control animals received vehicle only (PBS). For in vivo use, endotoxin was removed from scFv preparations on Detoxy-Gel resin (Pierce). Remaining traces ranged from 0.001 to 0.07 EU endotoxin/mg scFv (LAL test, Bio Whittaker). On day 32, mice were euthanized, dissected, the lungs excised, fixed in Bouin's solution, and metastatic foci counted at the lung surface under a dissecting microscope. The same lungs were embedded in paraffin, and 10 μm sections were cut and stained with hematoxylin/eosin. Per lung, 7 sets of three consecutive sections were collected, separated by 140 μm. The sections were randomized and coded, and the total number of metastatic foci counted.
To test directly whether targeting activated integrin αvβ3 with the ligand mimetic antibodies Bc-12 and-15 affects target organ colonization by circulating metastatic breast cancer cells, 1×10^5 BMS human breast cancer cells were injected intravenously into female C.B-17 SCID mice, together with 50 μg sterile, endotoxin free preparations of Bc-12 or Bc-15 (n=8-10 mice per group). At an average blood volume of 2 ml per mouse, this provides an initial scFv concentration of 1 μM. The clearance time for scFv antibody fragments in the circulation is less than 1 h. Kortt et al., Biomol. Eng, 18: 95-108, 2001. Tumor cells may remain in the circulation for several days. Therefore, scFv antibody injections (50 μg bolus doses, i.v.) were repeated on the second, third and fourth day. […] After 32 days, the mice were euthanized, dissected and analyzed by gross examination. […] The lungs were excised, fixed, and metastatic foci counted at the lung surface. Each of the control treated mice had tumor foci on their lungs (range: 8 to 68 foci per lung). In stark contrast, only two animals in the Bc-12 treated group, and 1 animal in the Bc-15 treated group had one visible nodule at their lung surface (FIG. 5A).
Per lung, six sets of three consecutive sections, separated by 140 μm, were collected. The sections were randomized and coded, and the total number of metastatic foci counted. All control animals had metastases in their lung tissues (range: 7 to 48 counts per lung), and those were of considerable size (FIG. 5B top image). […]

BMS breast cancer cells = assay: Antibody internalization (confocal microscopy); type: cell-based, human; settings: FITC-labeled scFv, permissive temperature (37° C.)
Description: FIGS. 3A, 3B, 3C, 3D, 3E. scFv Bc-12 and Bc-15 inhibit αvβ3 mediated adhesive breast cancer cell functions. (A) Adhesion of BMS human breast cancer cells to fibrinogen (Fg), vitronectin (VN) or type I collagen (Col I) in the absence or presence of 3 μM Bc-12, Bc-15 or their RGE mutants Mut-12, Mut-15, compared to 200 μM GRGDSPK peptide (SEQ ID NO: 11). Protein coating concentrations: 10 μg/ml (VN, Col I) or 20 μg/ml (Fg). Adhesion time: 30 min at 37° C. (B) Effect of scFvs on haptotactic BMS cell migration toward a fibrinogen substrate (16 hrs at 37° C. in transwell chambers with or without 2 μM Bc-12, Bc-15 or their RGE mutants Mut-12 or Mut-15, compared to 200 μM GRGDSPK peptide) (SEQ ID NO: 11). (C) Effect of scFvs on breast cancer cell arrest during blood flow. […] Tumor cell adhesion was quantified by image acquisition at 30 predefined positions during blood flow. Left: representative images of platelet signal (thrombi, green fluorescence) and tumor cell signal (red fluorescence) at identical x,y positions. […]
Antibody internalization. Breast cancer cells grown in chamber slide wells were incubated with 20 μg/ml FITC-labeled scFv in serum free EMEM for 3 h either at 4° C. or 37° C., washed 10 times, fixed and permeabilized with 95% ethanol, stained with propidium iodide, mounted in antifade solution, and analyzed with a laser scanning confocal microscope.

B1: Bc-15: patient derived human scFv antibody against activated αvβ3 with RGD motif in CDR-H3; cDNA ATCC PTA-6304 (protein)
scFv: MAQVQLVQSGAEVKEPGSSVKVSCKASGGTFSSYAIYWVRQAPGQGLEWMGWINPDSGDTNSAQQFQGRVTMTRDTSISTAYMELSRLRSDDTAMYYCARPPRGDGPDYWGQGTLVTVSSGGGGGS[letters of about 100 residues not shown]RGLGGLVDYKDDDDK
[1]; 50 μg i.v. days 1-4, 32 days
  health status during the experiment: appeared healthy
[1]; 50 μg i.v. days 1-4, day 32, P<0.001 Kruskal Wallis
  number of lung surface metastases versus PBS control: significantly fewer metastases
[1]; P<0.005 Kruskal Wallis
  number of metastases in lung sections versus PBS control: significantly fewer detectable metastases
[1]; SCID mice, 50 μg i.v. days 1-4, day 32, n=8-10 per group, controls 8 to 68 foci per lung
  animals with one visible nodule at lung surface: 1 animals
[1]; day 32
  gross examination at dissection: No obvious abnormalities
[1]; histological sections, day 32, all controls positive
  mice with microscopically detectable metastases in lung tissue: 1 of 9
BMS breast cancer cells
  binding and internalization by adherent cells: efficiently bound and readily internalized
